Reference: paper PMC10668032
The other results are listed elsewhere or left out. At the low end of the ranking the order means little.

These sequences were tested against SIX1-Q177R homeodomain (UniProt Q15475) (assay: universal protein binding microarray). Settings: Universal all-10-mer PBM (8x60K, AMADID 030236), 300 nM GST-tagged protein, Alexa Fluor 488 anti-GST; buffer, salt, pH and temperature not stated; high values mean tight binding; most listed sequences are background and not binding sites; double strand, one strand shown.
In the case of ACACCAGG, the binding signal is reported as 0.472 E-score. AGCCGTAC gave a binding signal of -0.12 E-score. In the case of AGAGGGAG, the binding signal is reported as -0.0887 E-score. Work on AGCACACG yielded a binding signal of 0.257 E-score. For ATTAGTTG, the binding signal was -0.0561 E-score. CCCAAAGG gave a binding signal of -0.00969 E-score. For ACTGCTTC, the binding signal was -0.131 E-score. Work on GGAGCATA yielded a binding signal of 0.115 E-score. With AGGCCGAC the binding signal was -0.108 E-score. AAATTTGC gave a binding signal of -0.271 E-score. With CTCTTTGA the binding signal was -0.153 E-score. For AACGTGTG, the binding signal was 0.154 E-score. GTTTGCCA showed a binding signal of -0.113 E-score. Sequence ACCCTTTC has a binding signal of 0.194 E-score. In the case of TCCATCAA, the binding signal is reported as 0.193 E-score. CTAATCAC showed a binding signal of -0.0283 E-score. CGGCGCGA was tested, and the binding signal was 0.0696 E-score. CGCCGATC gave a binding signal of 0.138 E-score. AAGCTATT showed a binding signal of -0.296 E-score. CATATAGA showed a binding signal of -0.00326 E-score. CGAAAAGC was tested, and the binding signal was -0.054 E-score. Sequence AGACAACC has a binding signal of 0.0645 E-score. With AAGGGCGG the binding signal was 0.00511 E-score. In the case of CTTGTGGA, the binding signal is reported as -0.00257 E-score. GAATCGGC showed a binding signal of -0.12 E-score. CGACGTCC gave a binding signal of -0.214 E-score. CCCATAAC gave a binding signal of 0.0724 E-score. Work on AGTAGATC yielded a binding signal of 0.0583 E-score. In the case of ACAACGTC, the binding signal is reported as -0.176 E-score. With AGCCATTA the binding signal was -0.136 E-score. With AGACAGAC the binding signal was -0.059 E-score. In the case of ATTGGATA, the binding signal is reported as 0.123 E-score. For ACGAATAG, the binding signal was -0.0586 E-score. Sequence GAAGTGTC has a binding signal of 0.387 E-score. With AAGCCCTC the binding signal was -0.144 E-score. AAGGGTCA was tested, and the binding signal was 0.0935 E-score. In the case of AGAGTCAA, the binding signal is reported as 0.0608 E-score. For AACCACTA, the binding signal was -0.0959 E-score. For ATTGCGTG, the binding signal was 0.183 E-score. For CTGAGGAA, the binding signal was -0.26 E-score. Sequence ATCAAAGC has a binding signal of -0.0517 E-score. For AAGGCCAA, the binding signal was -0.215 E-score. CGCTTAGA gave a binding signal of -0.102 E-score. GGATTCCA showed a binding signal of 0.0636 E-score. TGCTTACA gave a binding signal of 0.171 E-score. For GCAACACC, the binding signal was 0.467 E-score. Sequence GTGCCTTA has a binding signal of -0.0626 E-score. AGATGGAT showed a binding signal of -0.0602 E-score. CTCCACGA was tested, and the binding signal was -0.162 E-score. With GCACAGAA the binding signal was -0.0466 E-score. For GGCTGCCA, the binding signal was -0.0727 E-score. CTGTGGGC was tested, and the binding signal was -0.193 E-score. For AAAGGCAC, the binding signal was -0.135 E-score. AGTGTTTC showed a binding signal of 0.299 E-score. With AAAACTAT the binding signal was -0.0949 E-score. In the case of ATAAGTTA, the binding signal is reported as -0.112 E-score. In the case of CCGACGTA, the binding signal is reported as 0.044 E-score. With GACGGAAC the binding signal was -0.0301 E-score. GAGGTGGA was tested, and the binding signal was -0.144 E-score. With AGGTCCTC the binding signal was -0.205 E-score. Work on CCTAACCC yielded a binding signal of 0.0947 E-score. Work on ATACTTCA yielded a binding signal of -0.177 E-score. Work on AGGGCACC yielded a binding signal of 0.00999 E-score. AAGCGACA was tested, and the binding signal was 0.229 E-score. Sequence ACGGCAGC has a binding signal of -0.0508 E-score. CTGCATAC was tested, and the binding signal was 0.0404 E-score. With CAGGCGTA the binding signal was -0.0263 E-score. With GCTGTTAA the binding signal was -0.291 E-score. With AATAAAGC the binding signal was -0.243 E-score. With CAGTAGTC the binding signal was -0.0632 E-score. For ACCGAACA, the binding signal was 0.196 E-score. GGTTGCAC was tested, and the binding signal was 0.183 E-score. For CTCAGATC, the binding signal was -0.0696 E-score. For AACATGCC, the binding signal was -0.181 E-score. ATCAACAT gave a binding signal of -0.126 E-score. CTATATCA gave a binding signal of 0.00291 E-score. ACTGACTG showed a binding signal of -0.0697 E-score. For CAGTGACG, the binding signal was -0.0921 E-score. In the case of CAGCAGAC, the binding signal is reported as -0.101 E-score. Sequence GGTGCACA has a binding signal of 0.268 E-score. GTCGATAA gave a binding signal of -0.0907 E-score. In the case of GCGCCGCC, the binding signal is reported as -0.0111 E-score. With ACGCCACG the binding signal was 0.171 E-score. ACTCCACG gave a binding signal of 0.0447 E-score. In the case of AAATGTGT, the binding signal is reported as 0.122 E-score. GTTGATGA showed a binding signal of -0.163 E-score. With CTAGTTTA the binding signal was -0.193 E-score. Work on AGGAACAT yielded a binding signal of -0.141 E-score. Work on GCCTCAAC yielded a binding signal of -0.107 E-score. GAAACTGA showed a binding signal of -0.0308 E-score. Sequence CGGGTTTC has a binding signal of 0.101 E-score. With ACCTACCA the binding signal was 0.0412 E-score. For ACAGGCCC, the binding signal was -0.113 E-score. Work on ACGGACAA yielded a binding signal of -0.0562 E-score. With CGCAACTC the binding signal was 0.0168 E-score. Sequence GCCTGTAC has a binding signal of -0.0512 E-score. For AAGTACCG, the binding signal was -0.125 E-score. In the case of CAGAACGC, the binding signal is reported as -0.153 E-score. CGGCGAAC was tested, and the binding signal was -0.0735 E-score. Sequence GACTCGGA has a binding signal of 0.119 E-score. With CGACCGAG the binding signal was -0.151 E-score. Work on CAAGCTAG yielded a binding signal of -0.164 E-score. Work on ACTACGTG yielded a binding signal of 0.21 E-score. With ATGATGGC the binding signal was -0.195 E-score. Work on AAGTAAAT yielded a binding signal of -0.0782 E-score. For ATAGCATG, the binding signal was -0.287 E-score. For TCCCGAGA, the binding signal was -0.0243 E-score. AGCGCCCG was tested, and the binding signal was -0.113 E-score. Work on AGACCCTG yielded a binding signal of -0.0173 E-score. In the case of ACTCGGGA, the binding signal is reported as 0.0555 E-score. AAGCGGTC showed a binding signal of -0.0594 E-score. For CCGTTGTC, the binding signal was -0.174 E-score. With ACGGGCTA the binding signal was 0.055 E-score. For ACGTTCTG, the binding signal was -0.21 E-score. GCTCCGCC was tested, and the binding signal was -0.165 E-score. Work on AGTCGACG yielded a binding signal of 0.0329 E-score. CGGCATGA showed a binding signal of -0.0159 E-score. GCCTGTCA was tested, and the binding signal was -0.0986 E-score. CTTGACTC gave a binding signal of 0.125 E-score. For CGTCGTCA, the binding signal was -0.131 E-score. Work on CACTTGGC yielded a binding signal of 0.0343 E-score. AATTCAAA was tested, and the binding signal was -0.242 E-score. Work on CATGTAAC yielded a binding signal of 0.119 E-score. For ACTCACGA, the binding signal was -0.0313 E-score. In the case of GGTGTAGA, the binding signal is reported as 0.473 E-score. ATAGGTCG was tested, and the binding signal was -0.104 E-score. GACGCCAA showed a binding signal of -0.0144 E-score. For GAATGATC, the binding signal was -0.126 E-score. ACATTTCT was tested, and the binding signal was -0.152 E-score. In the case of CAACTAAC, the binding signal is reported as 0.108 E-score. Work on AAAACCCA yielded a binding signal of -0.00103 E-score. AGCTACCC gave a binding signal of 0.0582 E-score. GTATCGCA showed a binding signal of 0.234 E-score. Sequence ATGCAGGA has a binding signal of 0.15 E-score. For GGATTGCA, the binding signal was -0.122 E-score. TCACATAA showed a binding signal of -0.124 E-score. Sequence CCAAGATC has a binding signal of -0.108 E-score. AGGGGCGC was tested, and the binding signal was -0.0975 E-score. With ACCTCCCA the binding signal was 0.191 E-score. ACCTCCCT showed a binding signal of 0.0692 E-score. CGACCTCA showed a binding signal of 0.168 E-score. Sequence CGGCACGC has a binding signal of 0.0759 E-score. TGATGGAA showed a binding signal of -0.0859 E-score. Work on ACCGCCGG yielded a binding signal of 0.103 E-score. Sequence ACCGGGAA has a binding signal of -0.0276 E-score. CAATACCA gave a binding signal of 0.103 E-score. AGAGATCT gave a binding signal of -0.0869 E-score. With CCTTCCCA the binding signal was 0.085 E-score. In the case of ATTTGGCC, the binding signal is reported as -0.223 E-score. For GGGCGTAA, the binding signal was 0.0918 E-score. For CAGAGTTC, the binding signal was -0.142 E-score. Sequence TCCTGGCA has a binding signal of -0.0298 E-score. GGAACGCC was tested, and the binding signal was -0.029 E-score. With ATTGGTGC the binding signal was 0.16 E-score. With TCATCGCA the binding signal was -0.03 E-score. For AAATTGGA, the binding signal was 0.0506 E-score. Work on CTGCCTGA yielded a binding signal of -0.114 E-score. With TCAGCCGA the binding signal was 0.0195 E-score. Sequence GCAGGCAC has a binding signal of -0.0133 E-score. In the case of CTTACAAG, the binding signal is reported as 0.0437 E-score. With ATGGAGTC the binding signal was 0.232 E-score. In the case of ACTTAGAC, the binding signal is reported as -0.00349 E-score. For TCACTACA, the binding signal was 0.225 E-score. AACATAGG was tested, and the binding signal was -0.149 E-score. GAAACGGA gave a binding signal of -0.129 E-score. With CGAAGCAA the binding signal was -0.116 E-score. Sequence CACCGTGA has a binding signal of 0.277 E-score. Sequence TAACGGGA has a binding signal of -0.128 E-score. CTGAATAA showed a binding signal of -0.196 E-score. For AGCGAATA, the binding signal was -0.112 E-score. With CGGTGTAG the binding signal was 0.487 E-score. CCAAGTAG gave a binding signal of 0.0319 E-score.
